B1: IL-22 Fc fusion protein SA Variant 0 Low mol/mol (Fc fusion)
chain: APISSHCRLDKSNFQQPYITNRTFMLAKEASLADNNTDVRLIGEKLFHGVSMSERCYLMKQVLNFTLEEVLFPQSDRFQPYMQEVVPFLARLSNRLSTCHIEGDDLHIQRNVQKLKDTVKKLGESGEIKAIGELDLLFMSLRNACIRV[human IgG4 Fc with S228P N297G (EU numbers) omitted here]
modifications: N-glycans on the IL-22 part, desialylated with sialidase A from SA Variant 4; 0.7 mol sialic acid per mol fusion protein
notes: Sialic acid variant from a development batch; also called SA level 0 low; IL-22 Fc, 0.7 mol/mol SA
B2: IL-22 Fc fusion protein Clinical Batch 1 (Fc fusion)
chain: APISSHCRLDKSNFQQPYITNRTFMLAKEASLADNNTDVRLIGEKLFHGVSMSERCYLMKQVLNFTLEEVLFPQSDRFQPYMQEVVPFLARLSNRLSTCHIEGDDLHIQRNVQKLKDTVKKLGESGEIKAIGELDLLFMSLRNACIRV[human IgG4 Fc with S228P N297G (EU numbers) omitted here]
modifications: N-glycans at Asn21, Asn35, Asn64 and Asn143 of the IL-22 part; 8.7 mol NANA per mol fusion protein (Table 14)
notes: differs in glycans
B3: Deglycosylated IL-22 Fc fusion protein Reference Standard Batch (Fc fusion)
chain: APISSHCRLDKSNFQQPYITNRTFMLAKEASLADNNTDVRLIGEKLFHGVSMSERCYLMKQVLNFTLEEVLFPQSDRFQPYMQEVVPFLARLSNRLSTCHIEGDDLHIQRNVQKLKDTVKKLGESGEIKAIGELDLLFMSLRNACIRV[human IgG4 Fc with S228P N297G (EU numbers) omitted here]
modifications: all N-glycans removed with PNGase F (the filing notes at paragraph 617 that PNGase F converts the glycosylated asparagine to aspartic acid)
B4: Deglycosylated IL-22 Fc fusion protein Clinical Batch 4 (Fc fusion)
chain: APISSHCRLDKSNFQQPYITNRTFMLAKEASLADNNTDVRLIGEKLFHGVSMSERCYLMKQVLNFTLEEVLFPQSDRFQPYMQEVVPFLARLSNRLSTCHIEGDDLHIQRNVQKLKDTVKKLGESGEIKAIGELDLLFMSLRNACIRV[human IgG4 Fc with S228P N297G (EU numbers) omitted here]
modifications: all N-glycans removed with PNGase F (glycosylated Asn becomes Asp)
notes: also called deglycosylated Clinical Batch 4
B5: IL-22 Fc fusion protein Clinical Batch 3 (Fc fusion)
chain: APISSHCRLDKSNFQQPYITNRTFMLAKEASLADNNTDVRLIGEKLFHGVSMSERCYLMKQVLNFTLEEVLFPQSDRFQPYMQEVVPFLARLSNRLSTCHIEGDDLHIQRNVQKLKDTVKKLGESGEIKAIGELDLLFMSLRNACIRV[human IgG4 Fc with S228P N297G (EU numbers) omitted here]
modifications: N-glycans at Asn21, Asn35, Asn64 and Asn143 of the IL-22 part; 9.3 mol NANA per mol fusion protein (Table 14)
notes: Same polypeptide as m1; differs in glycans
B6: IL-22 Fc fusion protein Clinical Batch 2 (Fc fusion)
chain: APISSHCRLDKSNFQQPYITNRTFMLAKEASLADNNTDVRLIGEKLFHGVSMSERCYLMKQVLNFTLEEVLFPQSDRFQPYMQEVVPFLARLSNRLSTCHIEGDDLHIQRNVQKLKDTVKKLGESGEIKAIGELDLLFMSLRNACIRV[human IgG4 Fc with S228P N297G (EU numbers) omitted here]
modifications: N-glycans at Asn21, Asn35, Asn64 and Asn143 of the IL-22 part; 9.0 mol NANA per mol fusion protein (Table 14)
notes: as for B5
B7: Deglycosylated IL-22 Fc fusion protein Clinical Batch 2 (Fc fusion)
chain: APISSHCRLDKSNFQQPYITNRTFMLAKEASLADNNTDVRLIGEKLFHGVSMSERCYLMKQVLNFTLEEVLFPQSDRFQPYMQEVVPFLARLSNRLSTCHIEGDDLHIQRNVQKLKDTVKKLGESGEIKAIGELDLLFMSLRNACIRV[human IgG4 Fc with S228P N297G (EU numbers) omitted here]
modifications: all N-glycans removed with PNGase F (glycosylated Asn becomes Asp)
notes: also called deglycosylated Clinical Batch 2
B8: IL-22 Fc fusion protein SA Variant 0 High mol/mol (Fc fusion)
chain: APISSHCRLDKSNFQQPYITNRTFMLAKEASLADNNTDVRLIGEKLFHGVSMSERCYLMKQVLNFTLEEVLFPQSDRFQPYMQEVVPFLARLSNRLSTCHIEGDDLHIQRNVQKLKDTVKKLGESGEIKAIGELDLLFMSLRNACIRV[human IgG4 Fc with S228P N297G (EU numbers) omitted here]
modifications: N-glycans on the IL-22 part, desialylated with sialidase A from SA Variant 15; 0.9 mol sialic acid per mol fusion protein; more tetraantennary and galactosylated glycans than SA Variant 0 Low
B9: IL-22 Fc fusion protein SA Variant 4 mol/mol (Fc fusion)
chain: APISSHCRLDKSNFQQPYITNRTFMLAKEASLADNNTDVRLIGEKLFHGVSMSERCYLMKQVLNFTLEEVLFPQSDRFQPYMQEVVPFLARLSNRLSTCHIEGDDLHIQRNVQKLKDTVKKLGESGEIKAIGELDLLFMSLRNACIRV[human IgG4 Fc with S228P N297G (EU numbers) omitted here]
modifications: N-glycans on the IL-22 part; 4.6 mol sialic acid per mol fusion protein
B10: IL-22 Fc fusion protein SA Variant 15 mol/mol (Fc fusion)
chain: APISSHCRLDKSNFQQPYITNRTFMLAKEASLADNNTDVRLIGEKLFHGVSMSERCYLMKQVLNFTLEEVLFPQSDRFQPYMQEVVPFLARLSNRLSTCHIEGDDLHIQRNVQKLKDTVKKLGESGEIKAIGELDLLFMSLRNACIRV[human IgG4 Fc with S228P N297G (EU numbers) omitted here]
modifications: N-glycans on the IL-22 part; 15.4 mol sialic acid per mol fusion protein
notes: Sialic acid variant; also called IL-22 Fc, 15.4 mol/mol SA
B11: IL-22 Fc fusion protein SA Variant 12 mol/mol (Fc fusion)
chain: APISSHCRLDKSNFQQPYITNRTFMLAKEASLADNNTDVRLIGEKLFHGVSMSERCYLMKQVLNFTLEEVLFPQSDRFQPYMQEVVPFLARLSNRLSTCHIEGDDLHIQRNVQKLKDTVKKLGESGEIKAIGELDLLFMSLRNACIRV[human IgG4 Fc with S228P N297G (EU numbers) omitted here]
modifications: N-glycans on the IL-22 part; 12.0 mol sialic acid per mol fusion protein
notes: Sialic acid variant; also called IL-22 Fc, 12.0 mol/mol SA
B12: IL-22 Fc fusion protein SA Variant 8 mol/mol (Fc fusion)
chain: APISSHCRLDKSNFQQPYITNRTFMLAKEASLADNNTDVRLIGEKLFHGVSMSERCYLMKQVLNFTLEEVLFPQSDRFQPYMQEVVPFLARLSNRLSTCHIEGDDLHIQRNVQKLKDTVKKLGESGEIKAIGELDLLFMSLRNACIRV[human IgG4 Fc with S228P N297G (EU numbers) omitted here]
modifications: N-glycans on the IL-22 part; 8.1 mol sialic acid per mol fusion protein
notes: Sialic acid variant; also called IL-22 Fc, 8.1 mol/mol SA

How the values were obtained:
[1] = molecular target: T1, IL-22 receptor endogenously expressed on colo205 reporter cells (human, UniProt Q8N6P7 16-574; Q08334 20-325); test: cell-based or functional assay
T1 sequence 1: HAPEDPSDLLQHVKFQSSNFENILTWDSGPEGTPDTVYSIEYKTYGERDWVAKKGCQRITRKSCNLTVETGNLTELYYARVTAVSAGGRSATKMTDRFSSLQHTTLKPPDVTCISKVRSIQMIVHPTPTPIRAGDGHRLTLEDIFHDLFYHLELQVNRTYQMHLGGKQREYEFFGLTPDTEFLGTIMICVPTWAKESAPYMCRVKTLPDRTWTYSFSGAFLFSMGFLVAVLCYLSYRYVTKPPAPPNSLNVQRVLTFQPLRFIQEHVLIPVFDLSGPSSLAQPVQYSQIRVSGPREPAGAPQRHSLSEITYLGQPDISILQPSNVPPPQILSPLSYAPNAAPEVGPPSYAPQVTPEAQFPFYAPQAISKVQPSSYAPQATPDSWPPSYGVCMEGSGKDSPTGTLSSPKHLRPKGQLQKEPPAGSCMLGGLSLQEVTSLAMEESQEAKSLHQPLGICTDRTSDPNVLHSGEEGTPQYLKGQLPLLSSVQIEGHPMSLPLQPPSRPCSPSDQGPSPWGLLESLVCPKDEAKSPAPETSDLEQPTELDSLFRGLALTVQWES
T1 sequence 2: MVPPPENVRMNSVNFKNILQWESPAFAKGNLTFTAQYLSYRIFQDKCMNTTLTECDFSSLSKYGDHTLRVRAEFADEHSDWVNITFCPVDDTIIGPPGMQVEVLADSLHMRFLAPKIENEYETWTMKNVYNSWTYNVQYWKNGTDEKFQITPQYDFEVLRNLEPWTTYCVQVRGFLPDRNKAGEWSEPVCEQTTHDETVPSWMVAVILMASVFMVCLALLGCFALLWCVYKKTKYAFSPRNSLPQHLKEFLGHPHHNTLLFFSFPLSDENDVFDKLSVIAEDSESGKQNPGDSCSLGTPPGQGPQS

[2] = molecular target: T2, IL-22 RA1 ECD (Homo sapiens (Human), UniProt Q8N6P7 16-228); test: plate binding assay on coated IL-22 RA1 ECD, relative to Reference Standard, mean of n = 2; * = estimate of potency
T2 construct: also called IL22-RA1 extracellular domain; IL-22R1
T2 sequence: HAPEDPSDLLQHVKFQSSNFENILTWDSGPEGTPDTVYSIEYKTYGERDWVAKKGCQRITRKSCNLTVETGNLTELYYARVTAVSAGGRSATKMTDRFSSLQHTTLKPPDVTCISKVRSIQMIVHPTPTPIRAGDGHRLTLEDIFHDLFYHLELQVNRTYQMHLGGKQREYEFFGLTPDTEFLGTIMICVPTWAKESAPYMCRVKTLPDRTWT
Experimental: (§1) The IL-22 Fc fusion protein potency assay measures the ability of IL-22 Fc fusion protein to bind to the IL-22 RA1 ECD. In the assay, varying concentrations of IL-22 Fc fusion protein Reference Standard Batch, control, and samples are added to a 96-well plate coated with IL-22 RA1 ECD. Bound IL-22 Fc fusion protein is detected with goat anti-human IgG-horseradish peroxidase (HRP) antibody and a tetramethylbenzidine substrate solution. The results, expressed in optical density (OD) units, are plotted against IL-22 Fc fusion protein concentrations, and a parallel curve program is used to calculate the measured potency of IL-22 Fc fusion protein sample(s) relative to the Reference Standard Batch.
The presence and level of sialylation is known to have an impact on the interactions of glycoproteins, such as IL-22 (Marchal et al. Biol Chem 382:151-9, 2001). To study the impact of sialic acid on the interaction between IL-22 Fc fusion protein and the IL-22 receptor, IL-22 Fc fusion protein samples from different development batches with varying levels of sialic acid (quantitation limit of assay 3 mol/mol), 0.7, 4.6, 8.1, 12.0, or 15.4 mol sialic acid/mol IL-22 Fc fusion protein, were generated and tested in the binding assay and a cell-based reporter gene assay. The cell-based assay is a reporter gene assay that measures the ability of IL-22 Fc fusion protein to activate luciferase expression in engineered stable colo205 cells, which endogenously express IL-22 receptor. In the engineered stable colo205 cell reporter cell line, binding of a signal transducer and activator of transcription 3 (STAT3), to its DNA response elements in the promoter of the reporter gene induces firefly Luciferase expression. In the assay, colo205 reporter gene-expressing cells were incubated with prepared dilutions of IL-22 Fc fusion protein Reference Standard, Assay Control, and test samples in a 96-well assay plate. After a timed incubation, Luciferase Reagent was added to the wells of the assay plate, and reporter gene activity was measured using a luminescent plate reader. The amount of light emitted in each well of the assay plate is directly proportional to the amount of Luciferase induced by IL-22 Fc fusion protein Reference Standard, Assay Control, and test sample.

[3] = molecular target: T2, IL-22 RA1 ECD; test: plate binding assay: IL-22 RA1 ECD coated, bound IL-22 Fc detected with anti-human IgG-HRP; potency relative to Reference Standard Batch by parallel curve analysis
Experimental: as §1

[4] = molecular target: T2, IL-22 RA1 ECD; test: potency binding assay (OD against concentration) on plate-coated IL-22 RA1 ECD after deglycosylation with PNGase F; upper panel, legend box
Experimental: as §1
To investigate the role of the underlying glycan structure on binding activity, the same Clinical Batches as above were treated with PNGase F enzyme to remove all N-glycans and analyzed in the potency assay. The potency of the process control sample, prepared from the Reference Standard Batch through the same treatment as the samples excepting PNGase F addition, was different than the potency of the Reference Standard Batch. In addition, differences in molecular size heterogeneity for the process control compared to the Reference Standard Batch were observed. The process control contained more high molecular weight (HMW) forms and less low molecular weight (LMW) forms than the Reference Standard Batch, as measured by size-exclusion ultra-high-performance liquid chromatography (SE-UHPLC).

Row | Binder | Cell-based Result (% Relative Activity), Mean; STAT3 luciferase reporter gene assay in colo205 cells [1] [% Relative Activity] | Binding Result (% Relative Potency), Mean [2] [%] | also measured
1 | B1 | 148 | ~168 | –
2 | B2 | – | – | % Relative Potency [3]: 64%
3 | B3 | – | – | EC50 [4]: 0.047 µg/mL
4 | B4 | – | – | EC50 [4]: 0.051 µg/mL
5 | B5 | – | – | % Relative Potency [3]: 71%
6 | B6 | – | – | % Relative Potency [3]: 70%
7 | B7 | – | – | EC50 [4]: 0.046 µg/mL
8 | B8 | 121 | – | –
9 | B9 | 99 | – | –
10 | B10 | 26 | ~18 | –
11 | B11 | 39 | ~30 | –
12 | B12 | 67 | ~54 | –

Reference: patent publication US20200362003A1 (Genentech, published 2020)
